Laboratory results: the supplement of paper PMC3334620
In all, about 33,000 sequences were measured (“E-score (-0.5 to 0.5)”: median about -0.013, highest 2% from about 0.3 on). Some of the results follow.

Molecular target: T1, Msn1 (UniProt P22148)
T1 sequence: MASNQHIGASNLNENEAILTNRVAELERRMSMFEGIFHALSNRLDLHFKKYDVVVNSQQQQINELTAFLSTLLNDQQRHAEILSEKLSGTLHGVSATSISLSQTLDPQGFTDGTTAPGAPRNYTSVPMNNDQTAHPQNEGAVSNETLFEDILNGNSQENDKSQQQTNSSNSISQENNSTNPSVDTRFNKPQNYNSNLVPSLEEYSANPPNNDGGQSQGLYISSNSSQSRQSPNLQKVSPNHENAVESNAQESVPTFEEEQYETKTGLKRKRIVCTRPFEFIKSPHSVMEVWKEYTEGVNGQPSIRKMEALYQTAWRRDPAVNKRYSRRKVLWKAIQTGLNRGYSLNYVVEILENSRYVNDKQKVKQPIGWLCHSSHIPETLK
Assay: PBM E-score (8-mer binding enrichment) (E-score (-0.5 to 0.5)); higher = stronger / more preferred TF binding; most listed sequences are background and not binding sites
Conditions: protein concentration: 200 nM; construct: GST-full length
How it was run: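 Universal all-10-mer Agilent arrays, double-stranded by primer extension on fresh or once-stripped slides, were probed with about 100-200 nM GST-tagged yeast transcription factors made by PURExpress. Fluorescent anti-GST detected bound protein, and masliner normalised the scans. E-scores from the Universal PBM Analysis Suite were given to each ungapped eight-base word pooled with its reverse complement.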

Sequence	PBM E-score
CAATCTGG	-0.0689
AAAGTGAT	0.0511
GACCCACC	-0.112
GATACCCA	0.0835
AACGCTCC	0.00232
ACTAAAGC	0.147
AAAGCGTA	-0.135
GCACGATA	-0.012
ATCAGGCA	-0.108
ACCTCTCT	-0.18
AGCCTGAC	-0.218
GCATGTAA	-0.12
AAACAGCC	-0.194
ATGATTGG	0.0179
GCTACGAA	-0.0787
ACTCATCC	-0.00862
CATACCTC	0.0928
CACGTATA	-0.0381
CCTGGGCA	-0.239
ATTAAGCG	-0.00091
CGTCCGGA	0.331
ACGTCTAT	-0.0785
AGCGTTCA	-0.11
GGCAAACC	-0.244
CATCGGAC	0.188

Sequence	PBM E-score
AAATCTGA	0.0408
AGCTATGA	0.003
GCGGTGAA	-0.0785
TAACCTCA	-0.0824
CCATCAAG	-0.193
ACCATCCA	-0.107
AGAAAACG	0.00718
GGACTCCA	-0.0724
CCCCATGA	-0.0806
CCGTATAG	-0.0743
GTCTTTAA	0.135
CTACGTGC	-0.277
ATTTTATG	0.196
CCAGTACG	-0.0732
AGACATAA	0.373
GCAGAAGA	-0.116
AGTCTGAG	-0.1
ATCGCGGG	-0.0707
AGTTAAGG	0.00694
ACATAGCA	0.113
TAGGAATA	0.0598
CTATTTAA	0.0263
ACTGCTCG	-0.00898
AGTCAGGA	-0.0116
TCGAGAAA	0.139

Sequence	PBM E-score
AGGGAAGC	-0.122
GCGGGGAA	0.0187
GAAGGCCC	-0.2
CCTTCCCG	-0.199
CTGCCAAG	-0.103
AGAAAAAG	-0.0022
CGGGCCGA	-0.0715
TTCAAGAA	0.172
CCGAATGC	0.0112
TCCTAGCA	-0.0856
GGTTGTAA	0.0159
AGGACTAG	0.273
GATGCACC	-0.127
GATTGCCC	-0.0176
CGTTTGTC	0.44
ACTGCTTC	-0.239
CTAACCAC	0.0856
CAAGAAGG	-0.143
AATGTTCA	0.27
GTGGACCA	-0.0617
AGACTGAT	-0.134
GGTCGGTA	0.0288
CGGGGGCC	-0.373
CACTCTGC	0.127
GTCCGTGA	0.281

Sequence	PBM E-score
CGTCAAGC	-0.00551
TCGGCTCA	-0.0545
GCCATGGA	-0.0409
GAGTACGA	0.066
GCAGTATA	0.0241
CGTCGCGA	0.132
ACCTGGCT	-0.175
AACATGAC	0.0901
TATCGGAA	0.189
CTAGCGAC	-0.0316
AATCCCAG	-0.00923
GTGCCCTA	-0.216
GTCGCTTA	0.0727
AGTCCATC	0.0698
ATAGACTC	-0.291
CAACCTTA	-0.038
CTTAATTA	0.0858
CAGACTAC	-0.051
CAAGCCAA	0.0988
GAGTAGCA	-0.00134
AGGCCTGG	-0.0852
ACACAGCG	0.203
TAGTCCAA	0.11
CGTTCCAC	-0.174
ACATACGA	0.29

Sequence	PBM E-score
ACATCGTA	0.0275
AGTACTGG	-0.185
ATGTTTGC	-0.0389
TCGTTCCA	-0.126
ATTAAAGA	0.209
GTGATGGA	-0.0691
TCCGTGCA	0.145
ACTACTCA	-0.068
ACGTACGT	0.0825
CGGCCTAG	-0.0976
CTAAAACC	0.0697
ACCGAGCG	-0.0724
ACAGCACG	0.0367
CGCGTCGA	0.0801
AAAGGCAC	-0.123
AGTACAAG	0.251
AACACCAA	-0.0236
ATCATTTC	0.245
ATACAACG	0.19
AACTGGGT	-0.125
AAATGCCC	-0.157
ACCTTCCG	0.0345
ACGATTTG	-0.0467
CTATTAGC	0.077
CGTCTGAA	0.114

Sequence	PBM E-score
CTGGCTTA	-0.208
GGTTCGCA	-0.201
AATTTTAA	0.0965
GCGGTGCA	-0.331
ATAGCCAA	0.148
AATGAGTA	0.158
ATTAAATG	0.207
CTGTACCC	-0.0861
GGTAAAGA	0.0743
ATCAGCAG	0.0578
AGGAGCCT	-0.298
CACTGGAG	-0.337
ACAGCGTC	0.0533
GCTTGGGA	-0.0579
ACATCCGG	0.223
CGGACGCC	-0.0766
GGATGGAA	-0.179
AATGGCCT	-0.164
TTCCGAAA	0.0799
CCAAGTTA	-0.0486
ATTTAATC	0.158
TAAGTACA	0.287
GGGTCCAA	-0.104
GGAATAAA	0.119
CGGACCTA	0.00062

Sequence	PBM E-score
ATCATAAA	0.201
ACACTCCC	-0.146
CATTTTCA	0.224
CAGGAATA	-0.0463
GGTCCGTA	0.00752
GGTATGCA	-0.0214
CGGTATAC	-0.119
AGAGGCCT	-0.213
AAGGTTGC	-0.246
ATCGATGG	-0.0131
GCCTCACC	-0.183
GGCTCGAC	-0.105
CGCTTGGA	0.115
CAGTATGC	-0.0723
AGTGTAAA	0.0278
TATCTCGA	-0.0435
GTGCCAGA	-0.177
ACTCCAAC	0.0775
ACTCTAAT	0.101
GATCCTCC	-0.112
GCAGCAAA	0.00496
GGGATTGA	0.0459
